The source of these data is paper PMC5566547, “Nei-like 1 (NEIL1) excises 5-carboxylcytosine directly and stimulates TDG-mediated 5-formyl and 5-carboxylcytosine excision” (Scientific Reports, 2017).

This assay addresses T1, Thymine DNA glycosylase (TDG), full-length wild-type human, N-terminal hexahistidine tag (human, UniProt Q13569).
T1 construct: Thymine DNA glycosylase (TDG), human, full-length wild type, from pET28c(+) plasmid (gift of Primo Schär); The purification describes no tag cleavage step; also called TDG wt; full length TDG; source: E. coli BL21-RIL (DE3), purified (HisTrap, HiTrap Heparin)
Briefly: SEC; Superdex 200 10/300 GL; co-injection of NEIL1 E3Q and TDG (5nmoles of both in 0.5 ml), incubated 30 min on ice; SEC buffer 70 mM MOPS pH7.5, 5% glycerol, 1 mM EDTA, 1 mM DTT, 100 mM KCl; profile compared with the sum of separate injections. Particulars: both partners purified.

T1 sequence (Q13569 whole entry): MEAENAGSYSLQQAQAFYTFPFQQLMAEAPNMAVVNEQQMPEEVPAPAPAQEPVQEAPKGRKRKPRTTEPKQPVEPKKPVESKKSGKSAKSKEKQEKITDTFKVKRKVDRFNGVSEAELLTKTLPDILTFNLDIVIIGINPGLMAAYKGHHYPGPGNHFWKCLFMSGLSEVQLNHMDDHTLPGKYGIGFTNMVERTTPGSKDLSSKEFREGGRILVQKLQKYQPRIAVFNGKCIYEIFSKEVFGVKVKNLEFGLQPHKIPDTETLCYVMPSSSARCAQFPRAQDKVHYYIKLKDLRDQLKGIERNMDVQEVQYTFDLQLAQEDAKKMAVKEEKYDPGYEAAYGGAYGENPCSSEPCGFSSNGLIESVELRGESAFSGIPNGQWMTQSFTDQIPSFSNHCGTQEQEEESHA

B1: NEIL1 E3Q (human Nei-like 1, E3Q variant, C-terminal hexahistidine tag) (enzyme)
chain: not shown
notes: The purification describes no tag cleavage step. pET28 plasmid obtained from Prof Barbara Tudek and Prof Bertrand Castaing; source: E. coli BL21-RIL (DE3), purified (Ni-NTA, HiTrap Heparin)
On to B1, for which the binding result was “binds”.
